From PMC10320511
These are yes or no findings as the source states them, for the method shown. Binding seen in cells or lysates may run through a third protein. Where a sequence is shown, tags or fusion partners need not be part of it.

What was measured:
[1] = target: T1, FRQ Δ482–510, V5H6-tagged (Neurospora crassa) (UniProt P19970); experiment: co-IP; V5H6-tagged FRQ (wild type or mutant) pulled down with V5 agarose from Neurospora lysate (cultures in the light, 25 °C); 50 mM Hepes pH 7.4, 137 mM NaCl, 10% glycerol, 0.4% NP-40; 4 °C, 2 h; Western blot with FRQ, FRH, WC-1 and WC-2 antibodies
T1 sequence: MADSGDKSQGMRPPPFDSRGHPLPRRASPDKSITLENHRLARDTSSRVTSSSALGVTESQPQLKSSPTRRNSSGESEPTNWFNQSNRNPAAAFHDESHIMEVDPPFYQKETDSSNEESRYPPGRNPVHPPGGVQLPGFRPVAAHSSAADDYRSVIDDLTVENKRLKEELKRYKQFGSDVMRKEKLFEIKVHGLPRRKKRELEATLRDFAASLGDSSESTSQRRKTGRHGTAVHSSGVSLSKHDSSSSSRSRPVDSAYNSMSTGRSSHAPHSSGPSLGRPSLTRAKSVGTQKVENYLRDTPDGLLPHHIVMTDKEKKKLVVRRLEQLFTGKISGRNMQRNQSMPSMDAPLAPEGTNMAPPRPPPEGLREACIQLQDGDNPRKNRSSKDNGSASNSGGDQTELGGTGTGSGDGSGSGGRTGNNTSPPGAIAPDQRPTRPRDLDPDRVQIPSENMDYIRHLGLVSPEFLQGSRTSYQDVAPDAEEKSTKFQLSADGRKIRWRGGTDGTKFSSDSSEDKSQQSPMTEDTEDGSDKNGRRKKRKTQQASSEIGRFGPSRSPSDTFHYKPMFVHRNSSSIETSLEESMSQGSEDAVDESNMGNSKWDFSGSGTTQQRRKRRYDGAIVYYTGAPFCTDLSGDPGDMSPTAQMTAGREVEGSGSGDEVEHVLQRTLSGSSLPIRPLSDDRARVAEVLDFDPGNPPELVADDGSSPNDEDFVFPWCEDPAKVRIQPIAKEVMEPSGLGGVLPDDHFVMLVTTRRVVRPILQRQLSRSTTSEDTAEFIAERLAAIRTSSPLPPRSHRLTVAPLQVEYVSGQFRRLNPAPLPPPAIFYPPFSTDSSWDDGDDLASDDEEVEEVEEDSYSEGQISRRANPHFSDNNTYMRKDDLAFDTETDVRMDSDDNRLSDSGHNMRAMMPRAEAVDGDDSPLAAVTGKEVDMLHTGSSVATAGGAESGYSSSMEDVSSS

[2] = target: T2, FRQ Δ647–690, V5H6-tagged (Neurospora crassa) (UniProt P19970); experiment: as above
T2 sequence: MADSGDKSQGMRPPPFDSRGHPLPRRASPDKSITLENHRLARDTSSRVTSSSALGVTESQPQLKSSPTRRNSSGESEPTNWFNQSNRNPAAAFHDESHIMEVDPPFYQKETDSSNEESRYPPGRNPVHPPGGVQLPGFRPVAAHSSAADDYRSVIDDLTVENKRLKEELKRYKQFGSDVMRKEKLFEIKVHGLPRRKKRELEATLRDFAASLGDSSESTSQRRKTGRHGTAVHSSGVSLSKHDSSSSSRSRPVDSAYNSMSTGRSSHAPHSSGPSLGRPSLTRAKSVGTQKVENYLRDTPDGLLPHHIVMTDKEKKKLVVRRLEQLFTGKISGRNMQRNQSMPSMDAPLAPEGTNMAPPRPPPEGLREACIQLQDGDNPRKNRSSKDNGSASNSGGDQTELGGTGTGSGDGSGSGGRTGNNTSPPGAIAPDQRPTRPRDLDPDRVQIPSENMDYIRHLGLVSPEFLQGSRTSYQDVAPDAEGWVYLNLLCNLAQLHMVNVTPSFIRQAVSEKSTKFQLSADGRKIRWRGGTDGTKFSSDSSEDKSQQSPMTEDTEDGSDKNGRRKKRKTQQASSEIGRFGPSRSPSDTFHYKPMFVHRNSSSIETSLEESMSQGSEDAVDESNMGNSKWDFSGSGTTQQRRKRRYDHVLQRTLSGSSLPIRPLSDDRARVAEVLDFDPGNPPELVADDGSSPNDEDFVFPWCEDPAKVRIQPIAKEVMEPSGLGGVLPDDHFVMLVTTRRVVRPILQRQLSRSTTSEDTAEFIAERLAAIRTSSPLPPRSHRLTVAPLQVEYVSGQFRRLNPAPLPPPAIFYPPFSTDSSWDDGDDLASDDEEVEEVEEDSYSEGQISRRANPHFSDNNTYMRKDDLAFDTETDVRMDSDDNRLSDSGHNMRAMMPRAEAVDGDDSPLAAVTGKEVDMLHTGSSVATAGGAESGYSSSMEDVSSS

B1: White Collar-2 (WC-2) (protein, UniProt P78714 1-530)
chain: MSHGQPPPGSSMYGFGAMGMGSGMGSGMGSGMGTGMGTGMGTGMSASQMTSDPQDMMSLLDTSVFPGFDGMSMSLDVGDSMSNPFTPVSVPPPLPAGNAGPSHVGVCGGHGAPDQLFSPDDLIATSMSSAGPMIATPTTTTSGPSGGPSSGGGSTLTEFTKRRNWPAKVVEELQDWEHILDANGRIKHVSPSVEPLTGYKPPEIIDLFLRDLIHPDDVGVFTAELNEAIATGSQLRLFYRFRKKDGNWTIFETVGHAHIAAAKFAPNPQNQSPFCQAVFMMARPYPTKNAGLLDSFLEHKIENERLKRRIAELRREEQEEQEESHRTWRMSQEGRSDVTPSDDTATQMGMTPFYIPMNAQADVMMPPPSQPASSLNIALTRENLEGIAGSRPDSIREKMLRYEGNHADTIEMLTGLKYQEGERSHGITTGNASPTLIKGDAGIAIPLDRDPRTGEKKKKIKVAEEYVCTDCGTLDSPEWRKGPSGPKTLCNACGLRWAKKEKKKNANNNNNGGGIGGHNDIHTPMGDHMG
binding [1]: no binding | binding [2]: no binding
